Where “and” joins values, the source holds several entries; their conditions need not be identical. Equal entries are not always repeated. Structures can show the parent of a compound that is named as a salt. Out of some 1,800 compounds screened, about 50 (3%) showed activity. This is one part of the list.
System: mouse p16Ink4a+/- lung fibroblasts (INKBRITE, bleomycin-injured)
Assay: percentage of GFP+ (p16Ink4a+) fibroblasts among all cells in well; higher = less depletion of p16Ink4a+ cells, active = 20 or less
Settings: 1 µM; 3 days
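Note: fibroblasts sorted 14 days after bleomycin, GFP+ and GFP− mixed 1:1 in 384-well plates (GFP− as in-well control), imaged after Hoechst and NucView530 staining, reference wells lacked compound.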

SMILES | percentage of GFP+
O=S(=O)(O)CCSSCCS(=O)(=O)O [Dimesna] | inactive: 40.4%
N#C[C@@H]1CCCN1C(=O)CNC12CC3CC(CC(O)(C3)C1)C2 [Vildagliptin] | inactive: 47.1%
O=C(Nc1c[nH]nc1-c1nc2cc(CN3CCOCC3)ccc2[nH]1)NC1CC1 | inactive: 28.3%
CCN(CC)C(=O)[C@]1(c2ccccc2)C[C@@H]1CN [Milnacipran] | inactive: 44.9%
Cc1ncc(-c2ccnc(Nc3ccc(S(C)(=O)=O)cc3)n2)n1C(C)C | inactive: 30.3%
CC1(C)[C@@H](O[C@H]2O[C@H](C(=O)O)[C@@H](O)[C@H](O)[C@H]2O[C@@H]2O[C@H](C(=O)O)[C@@H](O)[C@H](O)[C@H]2O)CC[C@]2(C)[C@H]3C(=O)C=C4[C@@H]5C[C@@](C)(C(=O)O)CC[C@]5(C)CC[C@@]4(C)[C@]3(C)CC[C@@H]12 [Glycyrrhizin] | inactive: 53.3% and inactive: 38.4%
O=C(O)[C@]1(Cc2cccc(Nc3nccs3)n2)CC[C@@H](Oc2cccc(Cl)c2F)CC1 | inactive: 36.2%
O=C(c1ccc(F)cc1)C1CCN(CCn2c(=O)[nH]c3ccccc3c2=O)CC1 [Ketanserin Tartrate] | inactive: 49%
CCN(CC)CCOC(=O)C(c1ccccc1)c1ccccc1 [Adiphenine Hydrochloride] | inactive: 36.2%
C[C@H]1C[C@@H]2[C@H]([C@@H](O)C[C@@]3(C)[C@H]2CC[C@]3(O)C(=O)CO)[C@@]2(C)C=CC(=O)C=C12 [Methylprednisolone] | inactive: 42.7%
Cc1nc(C#Cc2ccnc(Cl)c2)c(C)n1-c1ccc(OC(F)(F)F)cc1 | inactive: 44.6%
Cc1nc(Nc2ncc(C(=O)Nc3c(C)cccc3Cl)s2)cc(N2CCN(CCO)CC2)n1 [Dasatinib] | inactive: 24.1%
COc1ccc(-c2cc(=O)c3c(O)cc(O[C@@H]4O[C@H](CO[C@@H]5O[C@@H](C)[C@H](O)[C@@H](O)[C@H]5O)[C@@H](O)[C@H](O)[C@H]4O)cc3o2)cc1O [Diosmin] | inactive: 44.8%
CC(/C=C1\SC(=S)N(CC(=O)O)C1=O)=C\c1ccccc1 [Epalrestat] | inactive: 48.9%
O=C(/C=C/c1ccccc1)NC(NC(=S)Nc1cccc2cccnc12)C(Cl)(Cl)Cl (configuration not stated) [Salubrinal] | inactive: 51.6%
CCCCOc1ccc(OCCCN2CCOCC2)cc1 [Pramocaine] | inactive: 48.7%
Cc1cc(NS(=O)(=O)c2ccc(N)cc2)no1 [Sulfamethoxazole] | inactive: 44.1%
C[C@@H]1CC(=O)NN=C1c1ccc(NN=C(C#N)C#N)cc1 [Levosimendan] | inactive: 37.7%
CC(C)C[C@H](NC(=O)[C@@H]1O[C@H]1C(=O)O)C(=O)NCCCCN=C(N)N | inactive: 48.8%
NS(=O)(=O)c1cc2c(cc1Cl)NC(C(Cl)Cl)NS2(=O)=O (configuration not stated) [Trichlormethiazide] | inactive: 40%
O=S(=O)(O)c1cc(O)ccc1O [Ethamsylate] | inactive: 47%
O=C(Nc1ncc(SCCN2CCCC2)s1)[C@]1(c2ccc(S(=O)(=O)C3CC3)cc2)C[C@H]1C1CCCCC1 | inactive: 37.1%
CN[C@@H]1[C@H](O[C@H]2[C@H](O[C@H]3[C@H](O)[C@@H](O)[C@@H](N=C(N)N)[C@@H](O)[C@@H]3N=C(N)N)O[C@@H](C)[C@@]2(O)C=O)O[C@H](CO)[C@H](O)[C@H]1O [Streptomycin sulfate] | inactive: 39.2%
O=C(CSc1nc2c(c(=O)n1-c1ccccc1)SCC2)Nc1ccc(-c2ccccc2)cn1 | inactive: 49.2%

SMILES | percentage of GFP+
COC(c1ccccc1)(c1ccccc1)[C@H](Oc1nc(C)cc(C)n1)C(=O)O [Ambrisentan] | inactive: 52.6%
N#CC1(c2ccc(NC(=O)c3cccnc3NCc3ccncc3)cc2)CCCC1 [Apatinib] | inactive: 28%
O=c1c(-c2ccc(O)cc2)coc2cc(O)ccc12 [Daidzein] | inactive: 41.3%
COc1cc(Nc2c(C#N)cnc3cc(OCCCN4CCN(C)CC4)c(OC)cc23)c(Cl)cc1Cl [Bosutinib] | inactive: 37.8%
CCC(C)(C)c1ccc(CC(C)CN2C[C@@H](C)O[C@@H](C)C2)cc1 (some centres not stated) [Amorolfine] | inactive: 41.3%
CS(=O)(=O)CCNCc1ccc(-c2ccc3ncnc(Nc4ccc(OCc5cccc(F)c5)c(Cl)c4)c3c2)o1 [Lapatinib] | inactive: 40.6%
O=C1Cc2cc(CCN3CCN(c4nsc5ccccc45)CC3)c(Cl)cc2N1 [Ziprasidone Mesylate, Ziprasidone] | inactive: 42.2%
O=C(NCC1CN(c2ccc(N3CCOCC3=O)cc2)C(=O)O1)c1ccc(Cl)s1 (configuration not stated) [Rivaroxaban] | inactive: 48.2%
CCCCN(Cc1ccc(C(=O)NO)cc1)C(=O)Nc1ccccc1 [Nexturastat A] | inactive: 47.5%
CCCCCCCCCCCCCCCC[N+](C)(C)C [Cetrimonium] | inactive: 39.4%
CN(C)CCC(CSc1ccccc1)Nc1ccc(S(=O)(=O)NC(=O)c2ccc(N3CCN(Cc4ccccc4-c4ccc(Cl)cc4)CC3)cc2)cc1[N+](=O)[O-] (configuration not stated) | inactive: 47.4%
Nc1nccs1 [Aminothiazole] | inactive: 43.8%
NC(=O)c1cccnc1 [Nicotinamide] | inactive: 44.1%
C/N=C(/NC#N)NCCSCc1[nH]cnc1C [Cimetidine] | inactive: 44.7%
Fc1cc(-c2cccc3ncc(-c4cnn(C5CCNCC5)c4)nc23)cc(F)c1CN1CCOCC1 | inactive: 51.6%
COc1cc([C@H]2Oc3cc([C@H]4Oc5cc(O)cc(O)c5C(=O)[C@@H]4O)ccc3O[C@@H]2CO)ccc1O [Silibinin A] | inactive: 40.7%
C[C@@H]1O[C@@H](O[C@H]2[C@H](Oc3cc(O)c4c(c3)O[C@H](c3ccc(O)cc3)CC4=O)O[C@H](CO)[C@@H](O)[C@@H]2O)[C@H](O)[C@H](O)[C@H]1O [Naringin] | inactive: 40%
CCc1cc(C(N)=S)ccn1 [Ethionamide] | inactive: 37.8%
CS(=O)(=O)c1ccc(C(=O)Nc2ccc(Cl)c(-c3ccccn3)c2)c(Cl)c1 [Vismodegib] | inactive: 41.8%
COC(=O)C1=C(C)N=C(C)/C(=C(/O)OC)C1c1ccccc1[N+](=O)[O-] (configuration not stated) [Nifedipine] | inactive: 34.3%
CC(C)(C)NC[C@H](O)COc1nsnc1N1CCOCC1 [Timolol] | inactive: 39.3%
COc1ccc(CNCc2cccc3ccccc23)cc1 | inactive: 44.3%
Cn1ncnc1[C@H]1c2nnc(O)c3cc(F)cc(c23)N[C@@H]1c1ccc(F)cc1 | inactive: 42.7%
Nc1cccc2c1CN(C1CCC(=O)NC1=O)C2=O (configuration not stated) [Lenalidomide] | inactive: 46%

SMILES | percentage of GFP+
Cn1cnc2c(F)c(Nc3ccc(Br)cc3F)c(C(=O)NOCCO)cc21 | inactive: 44.7%
Cc1cc(O)c2c(c1)C(=O)c1cc(O)cc(O)c1C2=O [Emodin] | inactive: 43%
Nc1ccc(N=Nc2ccccc2)c(N)n1 [Phenazopyridine] | inactive: 46.9%
C[C@H](Nc1ncnc2[nH]cnc12)c1cc2cccc(Cl)c2c(=O)n1-c1ccccc1 | inactive: 36%
CCOC(=O)c1ccc(OC(=O)CCCCCN=C(N)N)cc1 [Gabexate] | inactive: 47.9%
NC(=O)NO [Hydroxyurea] | inactive: 43.5%
O=C(N/N=C/c1ccc(O)c(O)c1)c1cc2ccccc2cc1O [Dynasore] | inactive: 40.7%
CN1CCN(C2=Nc3cc(Cl)ccc3Nc3ccccc32)CC1 [Clozapine] | inactive: 42.5%
COc1ccc2c(c1)c(CC(=O)O)c(C)n2C(=O)c1ccc(Cl)cc1 [Indomethacin] | inactive: 43%
COc1cc2c(cc1-c1c(C)noc1C)ncc1nc(O)n([C@H](C)c3ccccn3)c12 | inactive: 27.3%
O=C(c1cn(Cc2cncn2Cc2ccc(Br)cc2)cc1-c1cccc2ccccc12)N1CCOCC1 | inactive: 38.4%
COc1ccccc1OCC(O)COC(N)=O (configuration not stated) [Methocarbamol] | inactive: 43.9%
COc1cccc2c1[O][Mn]13([Cl])<-[N](=C2)CC[N]->1=Cc1cccc(OC)c1[O]3 | inactive: 38.6%
Nc1ccn([C@@H]2O[C@H](CO)[C@@H](O)[C@@H]2O)c(=O)n1 [Cytarabine] | inactive: 26.8%
CCCCCCCCCCCCCCCCO [1-Hexadecanol] | inactive: 56%
Clc1ccccc1C(c1ccccc1)(c1ccccc1)n1ccnc1 [Clotrimazole] | inactive: 48.2%
Cc1cc(C)cc(NC(=O)Cc2ccc(OC(C)(C)C(=O)O)cc2)c1 [Efaproxiral Sodium] | inactive: 44.3%
CCCCOc1ccc(CC(=O)NO)cc1 [Bufexamac] | inactive: 45.8%
CCCCc1nc2cc(/C=C/C(=O)NO)ccc2n1CCN(CC)CC [Pracinostat] | inactive: 24.8%
COc1ccccc1Oc1c(NS(=O)(=O)c2ccc(C(C)(C)C)cc2)nc(-c2ncccn2)nc1OCCO [Bosentan] | inactive: 54%
CC(C)C1CCC(C(=O)N[C@H](Cc2ccccc2)C(=O)O)CC1 (some centres not stated) [Nateglinide] | inactive: 46.5%
CC1(C)O[C@@H]2[C@@H](CO[C@@]3(COS(N)(=O)=O)OC(C)(C)O[C@@H]23)O1 [Topiramate] | inactive: 42.7%
N#Cc1c(Oc2ccc(F)c(NC(=O)Cc3cccc(C(F)(F)F)c3)c2)ccc2nc(NC(=O)C3CC3)sc12 | inactive: 29.2%
CN1CCN(C(=O)c2cc3cc(Cl)ccc3[nH]2)CC1 | inactive: 43.6%

From the supplement of paper PMC11060735
